Test results published in PubChem BioAssay AID1347071 (National Center for Advancing Translational Sciences (NCATS), 2019).
In all, about 410,000 compounds went through this assay and about 260 (0.063%) were called active. The inconclusive results got no clear call from the source; some entries with a clear call stand among them for comparison. Calls follow the shape of the dose curve; as a rule, active = well fitted activation curve with a large enough effect; inconclusive = small, poorly fitted or top-dose-only effect; inactive = no such curve, though single readings can be large or run the other way. Potencies of inconclusive entries are left out as doubtful fits.

experiment: qHTS for compounds that reverse cellular toxicity of Amyloid beta (A-beta) peptide in yeast: Primary Screen; settings: yeast expressing A-beta42, growth rescue, OD600, 48 h; growth rescue: at 46.1 µM (top of the series), 0% DMSO, 100% iron-clioquinol control; also: nearly all actives have a fitted effect of over 55% in size
Summary of the method: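 Growth rescue measured by 600 nm absorbance after 48 h yeast culture at 30 C with compound. Values normalized between DMSO and an equimolar ferric chloride plus clioquinol control.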
Potency is read from the fitted curve at half-maximal effect; tags tell the direction and shape of the fitted curve.

SMILES | Potency
CCCCC(=O)NC(c1ccccc1)c1ccc2cccnc2c1O (configuration not stated) | inconclusive [activator, single point]
Cc1cccc(OCc2nc(C#N)c(NCc3ccccc3Cl)o2)c1 | inactive
Cc1nn(-c2ccccc2)c(N2CCCC2)c1/C=N/NC(=S)Nc1ccc(F)cc1 | inconclusive [activator, single point]
O=C(Nc1ccccc1F)c1ccc([N+](=O)[O-])s1 | inactive
CCC(C)(C)NC(=S)Nc1ccccc1C | active: 12.6 µM
O=C(CCCc1nc2ccccc2s1)NCc1ccc(F)cc1 | inconclusive [activator, partial curve, poor fit]
c1ccc(Nc2nc(-c3ccccn3)cs2)cc1 | inconclusive [activator, partial curve, poor fit]
CC(C)=CC(=O)O[C@@H]1Cc2cc3ccc(=O)oc3cc2OC1(C)C | inactive
CCNC(=O)C(=O)N/N=C/c1cc([N+](=O)[O-])ccc1O | inactive
C=CCn1c(O)c(N=NC(=S)Nc2cccc(C)c2)c2ccccc21 | inconclusive [activator, partial curve, poor fit]
CSCCC1NC(=S)N(Cc2ccccc2)C1=O (configuration not stated) | inconclusive [activator, partial curve, poor fit]
COc1ccc(C(=O)NC(=S)NNC(=O)CCc2ccccc2)cc1 | inconclusive [activator, full curve, poor fit]
CN(C(=O)CSc1nnc(Nc2ccccc2)s1)c1c(N)n(Cc2ccccc2)c(=O)[nH]c1=O | inconclusive [activator, partial curve, poor fit]
COc1ccc(N2CCN(C(CNC(=O)CC(C)C)c3ccc4c(c3)OCO4)CC2)cc1 (configuration not stated) | inactive
Cc1ccc(CN2CCC[C@]3(N[C@H](c4ccc(C(F)(F)F)cc4)[C@@H]4C(=O)N(Cc5ccccc5)C(=O)[C@@H]43)C2=O)cc1 | inconclusive [activator, single point]
CCC1(c2ccccc2)NC(=S)N(c2ccc(C)cc2)N1 (configuration not stated) | inconclusive [activator, full curve, poor fit]
CC(NC(=S)NC1CCCCC1)c1ccc(C(C)(C)C)cc1 (configuration not stated) | inconclusive [activator, single point]
Cc1cccc(N2CCN(C(=O)c3cn(C4CCCCC4)c(=O)c4c3c3ccccc3n4C)CC2)c1C | inactive
CC1CCc2sc(C(=O)OCC(=O)NCc3ccccc3)cc2C1 (configuration not stated) | inconclusive [activator, partial curve, poor fit]
Fc1ccc(/C=N/NC(=S)NCCc2ccccc2)cc1F | inconclusive [activator, partial curve, poor fit]
CCCCC(=O)NC(c1cccs1)c1cc(Cl)c2cccnc2c1O (configuration not stated) | inconclusive [activator, single point]
CCCS(=O)(=O)c1ncc(Cl)c(C(=O)N2CCN(c3ccc(OC)cc3)CC2)n1 | inactive
O=[N+]([O-])c1cccc(NC(=S)N2CCc3ccccc3C2)c1 | inconclusive [activator, single point]
CC(Cc1ccccc1)N/C=C1\CC(=O)NC1=O (configuration not stated) | inconclusive [activator, single point]

SMILES | Potency
CCOc1cccc2sc(N(Cc3cccnc3)C(=O)C3CCCCC3)nc12 | inactive
O=C(NC(=S)N(Cc1ccccc1)Cc1ccccc1)C1CCCCC1 | inconclusive [activator, single point]
C=CCn1c(CCc2cc(C(C)(C)C)c(O)c(C(C)(C)C)c2)n[nH]c1=S | inconclusive [activator, single point]
CCOC(CCNC(=O)c1cn(C)c(=O)c2c1c1ccccc1n2C)OCC | inactive
Cc1ccc(NC(=O)N2CCc3c([nH]c4ccccc34)C2c2ccccc2F)c(Cl)c1 (configuration not stated) | inactive
Cc1ccc(C(C)C)cc1OCC(=O)Nc1nnc(C2CC2)s1 | inconclusive [activator, single point]
COc1ccc(CCNC(=S)Nc2ccc(C(C)C)cc2)cc1 | inconclusive [activator, full curve, poor fit]
CCOC(=O)c1cnc2c(C)cc(C)cc2c1Nc1ccc(N2CCOCC2)cc1 | inactive
Cc1ccc(S(=O)(=O)N(CCC(=O)Nc2ccc(OC(F)(F)F)cc2)c2ccccc2)cc1 | inconclusive [activator, partial curve, poor fit]
CCCOc1ccccc1C(=O)Nc1nc2c(s1)CCCC2 | inactive
Cc1nc2ccc(C(=O)N(C)Cc3ccco3)cn2c1N(C)C(=O)CCc1ccccc1 | inactive
COc1cc(OC)c(NC(=O)C(C)n2nc(-c3ccc(C)c(C)c3)ccc2=O)cc1Cl (configuration not stated) | inactive
Cn1cc(-c2csc(C(O)(c3ccccc3)C(F)(F)F)n2)cn1 (configuration not stated) | inconclusive [activator, single point]
N=C1SCC(=O)N1c1ncc(Cc2ccc(F)cc2)s1 | inconclusive [activator, single point]
Clc1ccc(OCCn2cnc3ccccc32)c(Cl)c1 | inconclusive [activator, partial curve, poor fit]
N#Cc1ccc(OCC(=O)NCC2(N3CCCCC3)CCCCC2)cc1 | inconclusive [activator, full curve]
COCCNc1nc2cc(-c3cccc(C(F)(F)F)c3)sc2c(=O)n1C | inactive
COc1ccc(NC(=O)C(=O)N/N=C(\C)CC(=O)Nc2ccccn2)c(OC)c1 | inconclusive [activator, single point]
CCc1ccc(C(=O)Nc2cc(C)ccc2F)s1 | inconclusive [activator, single point]
COc1ccc(NC(=O)COC(=O)CCC2CCCCC2)cc1 | inconclusive [activator, single point]
COCCCn1c(=S)[nH]c2sc3c(c2c1=O)CCCC3 | inconclusive [activator, partial curve, poor fit]
CC(C)OC(=O)C(C(=O)C(F)(F)F)c1cc(NS(=O)(=O)c2ccc3ccccc3c2)c2ccccc2c1O (configuration not stated) | inactive
CCOC(=O)C1=C(CNCc2ccccc2)NC(=O)NC1c1ccc(C)cc1 (configuration not stated) | inactive
O=C(c1[nH]nc2c1CCc1ccccc1-2)N1CCN(Cc2ccc3c(c2)OCO3)CC1 | inconclusive [activator, full curve, poor fit]

SMILES | Potency
CC(C)(C)c1ccc(/C=N/OCC(=O)NCc2ccc(F)cc2)cc1 | inconclusive [activator, single point]
CCC1COCCS(=O)(=O)N1Cc1cccc(Cl)c1 (configuration not stated) | inactive
CC(C)N1CCC(N2CCN(CCCc3ccccc3)CC2CCO)CC1 (configuration not stated) | inconclusive [activator, single point]
Cc1cc(C)cc(NC(=O)C2CCN(c3nc(C)cc(C)n3)CC2)c1 | inconclusive [activator, full curve]
CCC(NC(=S)NCc1ccc(F)cc1)c1ccc(C(C)C)cc1 (configuration not stated) | active: 7.08 µM
COc1ccc(C(O)c2nc(-c3cc(F)cc(Cl)c3)cs2)cc1 (configuration not stated) | inconclusive [activator, partial curve, poor fit]
CC(=O)c1ccc(Nc2ccc(-c3ccccc3F)nn2)cc1 | inactive
CCOc1ccc(Nc2c(S(=O)(=O)c3ccccc3)cnc3ccc(CC)cc23)cc1 | inactive
CCCCCc1n[nH]c2c1CCCC2 | inconclusive [activator, partial curve]
Cc1ccccc1N1C(=O)c2cccc3cccc(c23)C1=O | inactive
COc1cccc(-c2csc(N3CCN(C(=O)Nc4ccc(F)cc4)CC3)n2)c1 | inactive
CCN(CC)c1ccc(C=C2C(=O)OC3(CCCCC3)OC2=O)cc1 | inconclusive [activator, full curve]
COc1ccccc1CN(C)C(=O)C1(c2ccc(Cl)cc2)CC1 | inconclusive [activator, single point]
Clc1ccc(-c2csc(N3CCSCC3)n2)cc1 | inconclusive [activator, partial curve, poor fit]
Cc1ccc(Cc2c[nH]c(=S)s2)cc1 | inactive
COc1ccc(/C=C/C(=O)NC(=S)NNC(=O)c2cc(OC)c(OC)c(OC)c2)cc1 | inconclusive [activator, partial curve]
COc1ccc(Cl)cc1-c1cc(C(=O)NCC2CCCCC2)[nH]n1 | inactive
CCOC(=O)c1c(NC(=O)C2C3C=CC(CC3)C2C(=O)O)sc(C)c1CC (configuration not stated) | inactive
CC(=O)c1cn(CCOc2ccccc2C)c2ccccc12 | inactive
COc1ccc(N2CCN(CNC(=O)c3ccccc3)CC2)cc1 | inactive
COc1cccc(OCCn2cc(C(C)=O)c3ccccc32)c1 | inconclusive [activator, partial curve, poor fit]
COCc1[nH]nc2c1C(c1c(F)cccc1Cl)C(C#N)=C(N)O2 (configuration not stated) | inconclusive [activator, single point]
Cc1cccc(C)c1N1CCN(C(=O)c2ccc3c(c2)OCO3)CC1 | inconclusive [activator, partial curve, poor fit]
CCOc1cccc(/C=N/NC(=S)Nc2cc(S(=O)(=O)N3CCOCC3)ccc2N2CCOCC2)c1O | inconclusive [activator, full curve, poor fit]
